Results reported in the supplement of paper PMC11417369.
± gives the standard deviation of the averaged measurements. Some of the results follow.

Test system: PfAP2-EXP AP2 domain (GST-tagged)
Assay: gcPBM binding intensity (ln(normalized median fluorescence intensity)); higher = stronger DNA binding
Outline: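 Binding of GST-tagged P. falciparum DNA-binding domains, expressed in E. coli and used at about 25 μg on average, was carried out for 1 h in 1× PBS containing 1% milk, 0.2 mg/ml BSA, 0.5% salmon testes DNA and 0.03% Triton X-100. The target was an Agilent 4 × 180k array of primer-extended double-stranded 36-bp intergenic genomic probes plus negative controls, read with Alexa488 anti-GST antibody at 488 nm. Binding intensity is the highest Masliner-normalised natural-log median intensity across replicate spots of either probe orientation.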

Row | Sequence | gcPBM binding intensity (ln)
1 | TTATTTATATATTCATGTACATAACATTTCATTCGA [XGTACX_site4388] | 8.59 ± 0.26
2 | TTTTAAGAATAAAATTGTACACATACATGTGTTCGC [XGTACX_site438] | 8.27 ± 0.26
3 | AAACAGAAGACATATACACACATACAAAAAAGTGCA [CACACA_site4699] | 8.81 ± 0.33
4 | TTCTCATTCAAATTAGTGCATTTTTGTTATTACATT | 9.04 ± 0.028
5 | TGTGTATATATATAATGTACATAAAGATTTATATAT [XGTACX_site5835] | 8.62 ± 0.36
6 | ATACTAAAAAGTATCTGTACTTATTTTAAAAATAAA [XGTACX_site4116] | 8.32 ± 0.32
7 | TTTTCTAAAATGAATTGTACTTGATTATTTAAAAAA [XGTACX_site6097] | 8.02 ± 0.4
8 | TAAAAAATGAAAAAGCGTACATGTTTTCTTATATTA [XGTACX_site1722] | 8.38 ± 0.33
9 | TGTATCATAAAAATAACACACGTATTTTTTTTTATT [CACACA_site1050] | 8.36 ± 0.47
10 | TAAATAATTAAAATATGTACTGAAATGTAATTATTT [XGTACX_site5894] | 8.47 ± 0.51
11 | TATTTACTTATATGCACACATAAATGTGAATTATGG [CACACA_site3777] | 8.34 ± 0.23
12 | ATATAATAAAATGACACACGCATATATATATATATA [CACACA_site2789] | 10.2 ± 0.51
13 | TTTCTTTTTAAATATATACACACCGTGGGTACATAT [CACACA_site9102] | 8.53 ± 0.49
14 | TTATATTTATTTATTTGTACATATTTTTTTTTATAT [XGTACX_site1669] | 8.75 ± 0.34
15 | ATAAAATATTAATTTTAAATTAATCAATATATATAA [GTGCAC_negctrl_site474] | 8.07 ± 0.44
16 | TCATATCTTTTGAGCACACATATATATATATAAAGG [CACACA_site3338] | 8.71 ± 0.34
17 | ATTAATATTCTATATGCATGTGAACCATGGTATATA [TGCATGCA_site430] | 8.7 ± 0.32
18 | ATATATATATATATATGTACTTATTTATCGTATTAT [XGTACX_site3520] | 10.1 ± 0.5
19 | ATTTTTTCTTATAATGCATGTAGAAAACCGTACAGC [TGCATGCA_site57] | 8.77 ± 0.32
20 | AGGCTCAAATCTAGGTGTACCATTATCGTTGTATCT [XGTACX_site4730] | 8.6 ± 0.47
21 | TATGTGTTTATTTGGTGTACATACTAATAAATATAC [XGTACX_site1682] | 8.68 ± 0.11
22 | CCTAAATTATATTATGCACACTTAAAAATATATTTA [CACACA_site5861] | 8.615 ± 0.007
23 | ATAAATGGAAACAAAAGTACTAAAAAAAAAAAATAA [XGTACX_site1510] | 8.64 ± 0.41

Row | Sequence | gcPBM binding intensity (ln)
24 | AATAATATAGATTGTACACACAAAATGGGAAAAAAA [CACACA_site1886] | 9 ± 0.41
25 | ACGGGTCAATATATGCGTACTTATTTAAATAATTAA [XGTACX_site1518] | 8.57 ± 0.42
26 | ATTATGTATATAAATTAACACACATATGTGGTTAAT [CACACA_site9028] | 8.36 ± 0.44
27 | TATATATGTATGTATTGTACAATTAAAAATATGTAT [XGTACX_site3990] | 8.55 ± 0.39
28 | AAAAAAAAAAAAGATACACACAAAAATGAATATATA [CACACA_site2099] | 8.2 ± 0.47
29 | ATATATATATATATATGTACATATATATATAATTTT [XGTACX_site4146] | 9.96 ± 0.3
30 | ATATATATATATAACTGTACTTATATATACATTTTA [XGTACX_site8605] | 9.92 ± 0.33
31 | TAAATAAATAAAAAAACACACATATATATATATATA [CACACA_site4029] | 10.2 ± 0.32
32 | ATCAAGCACCAACACACACACACACCCCCACCCACA [CACACA_site370] | 9.43 ± 0.4
33 | TTTTATCACATTATTGCACACACATAAAGAAAAAAA [CACACA_site8922] | 8.63 ± 0.27
34 | TTTATGTAGGAACTAACACACATTGTAAGATTCAGA [CACACA_site1998] | 8.44 ± 0.38
35 | GGAACTTTTGGAGGTGCATGCGGAGCAATCTTTTCA [TGCATGCA_site454] | 9.12 ± 0.21
36 | CATATCAATAATATCACACATATATGTGATTTTATT [CACACA_site5053] | 8.35 ± 0.28
37 | TTATTAATTTATAAATGTACGAATTTTTTATTTAAC [XGTACX_site7605] | 8.31 ± 0.42
38 | CCCCTTAATTAAAGGAGTACTATTTGTGAATAATAT [XGTACX_site4715] | 9.2 ± 0.39
39 | TATTAATAATTAAGTTGTACATTAATTAATATACTG [XGTACX_site6994] | 8.24 ± 0.31
40 | TTTAATATTAATAATTGTACATTTTCATAAATACGC [XGTACX_site2837] | 8.4 ± 0.36
41 | TTTAAACCTTAATATTGTACGCAAAAAAAAAAAGAA [XGTACX_site3757] | 8.67 ± 0.41
42 | AGGAAAAAATCGAGTAGTACACATTTAGAAATATAA [XGTACX_site8019] | 8.74 ± 0.43
43 | AAAATATAAATTCATGTGCACATATATATTTTGTTA [GTGCAC_site9782] | 8.71 ± 0.28
44 | ATATCACATATATATATATATATATATATATATATA [XGTACX_negctrl_site463] | 9.95 ± 0.61
45 | AACAAGGCCCGGTACTGTACATTTTTTCATAACATT [XGTACX_site6134] | 8.64 ± 0.52
46 | GTATGTATATTTATCTGTACATATTTATGTATTCTT [XGTACX_site2112] | 8.73 ± 0.28

Row | Sequence | gcPBM binding intensity (ln)
47 | TATATACATATATACACACACATATATTATATATAT [CACACA_site275] | 8.69 ± 0.27
48 | TTTTTTTTTATAGCTAAACACACATAAGAATATATG [CACACA_site8282] | 8.28 ± 0.41
49 | TATAAATATAAAAGGAGTACAAATATATATATATAT [XGTACX_site1386] | 10.1 ± 0.22
50 | AGTTATAATAAAAAATGTACGTATTATCATTAAGAA [XGTACX_site4244] | 8.65 ± 0.26
51 | AAAAAAATTAAACATACACACGTTACTATTTTTATA [CACACA_site5009] | 8.19 ± 0.41
52 | TCCTAATATATGTATGCACACACAATATATACATAT [CACACA_site9111] | 8.63 ± 0.28
53 | GAAAATAAAAAATATGAACACACATATATAACAAAA [CACACA_site7975] | 8.86 ± 0.25
54 | AAAATTGATATATGCACACATATATATATTAAATAT [CACACA_site763] | 8.23 ± 0.43
55 | AAAAAAAAAAAAAACACACATACACATATATTTTTA [CACACA_site3893] | 8.43 ± 0.25
56 | TTTCATTCTGGTATCACACATTTATTTTCTAGTTTA [CACACA_site4286] | 8.88 ± 0.42
57 | AAAAAATAAAACATATATAATATATAATATATATAT [GTGCAC_negctrl_site447] | 9.06 ± 0.3
58 | AATGTGAAAACGTGTACACATTTTATTTAATTTATC [CACACA_site5966] | 8.49 ± 0.33
59 | ATAAATTATATTATTGAACACACGTTTGGTAATGTT [CACACA_site2662] | 8.43 ± 0.38
60 | AAAAAAATAATAAAAAGTACAAAATGTAGAAAATGT [XGTACX_site5018] | 9.03 ± 0.37
61 | TTTATTAATTTATAGTGTACATATTAATAATATATT [XGTACX_site7949] | 8.35 ± 0.2
62 | ATATATATTATATATTGTACATATTATATTCATTAT [XGTACX_site1766] | 8.57 ± 0.3
63 | TTAATTGAAACTTATTGTACTTTTTTTTTTTTTTTT [XGTACX_site8162] | 8.46 ± 0.11
64 | ATAAATAAAAATAGAACACACATATGTTTTTTTTTT [CACACA_site3556] | 8.2 ± 0.37
65 | CCTAGAAAAAAGAACTGTACATATATATATAAATAT [XGTACX_site1680] | 8.62 ± 0.57
66 | TGAAAAAATATAATTTGTACATATCAGGCAAAAATG [XGTACX_site1824] | 8.68 ± 0.38
67 | ATATGCAGAGACTGTTTGCACTTTTTTATTTTATGT [GTGCAC_site9695] | 8.77 ± 0.2
68 | AGGACAAGGGTTACATGTACATATATATATATATAT [XGTACX_site901] | 10.1 ± 0.32
69 | AAGTTATTTATATATACACACAAATATAAATAATAT [CACACA_site1228] | 8.51 ± 0.39

Row | Sequence | gcPBM binding intensity (ln)
70 | CTCAAATTTATTAGTGGTACATAACCAAGGAAATAA [XGTACX_site225] | 8.6 ± 0.25
71 | ATTATAATTACTCTAGTGCATTATAAATATGAATAA | 8.62 ± 0.057
72 | TATTATGTTTATTAAACATGCATATATTTATTTATA [TGCATGCA_site187] | 8.62 ± 0.47
73 | ATATTTTATCATGTTTAATATTTATGTGGACATAAA [GTGCAC_negctrl_site275] | 8.53 ± 0.47
74 | AGTTGGATACGAAGATGTACAATAATAATAATTAAG [XGTACX_site3561] | 8.9 ± 0.35
75 | ACATTTTATATATGTAGTACATATTATAGATAATTT [XGTACX_site1976] | 8.37 ± 0.27
76 | TATTTTATTTTTTTATGTACACAAAAAAAAAAAAAA [XGTACX_site945] | 8.22 ± 0.35
77 | TCACTATAATAATTTACACACATTTTAAGAAAATGG [CACACA_site5867] | 8.21 ± 0.33
78 | ATCAAAAACATACCTACACACACAATATGTATATAT [CACACA_site9171] | 8.38 ± 0.39
79 | TAAAAAATATAAACTGCACACACACTAATAAAGAAA [CACACA_site8119] | 8.93 ± 0.47
80 | AATATATAAATGTTGTGTACTAAGCAATATATTTTA [XGTACX_site2483] | 8.57 ± 0.4
81 | ATTCGTCACATTTTTTGATATATATATATATATATA [CACACA_negctrl_site1785] | 10.4 ± 0.4
82 | GCTTATTAATATCATACACACATAGATATATTTATA [CACACA_site3104] | 8.56 ± 0.4
83 | ATATAGTTGTCATATTGTACACTTTAGGGTTGGTTA [XGTACX_site7339] | 8.62 ± 0.42
84 | CTATTATCGGTTCCTACACACAAATATATATGTCTA [CACACA_site3579] | 8.75 ± 0.72
85 | CAATGGTACATACATACACACACACTAATAAAAAAA [CACACA_site8450] | 8.59 ± 0.62
86 | TACAATCCATATTGTTGTACATTTATAAAATTTACA [XGTACX_site3053] | 8.28 ± 0.39
87 | GTATATATATAAGAAGAAATATATAAATAAAATATA [CACACA_negctrl_site503] | 8.46 ± 0.46
88 | CACAGACACGGACACACACACATATATAATATATAT [CACACA_site4495] | 8.84 ± 0.33
89 | AAGATATGAACATTTTGTACTTAAAAATTCAATATT [XGTACX_site7103] | 8.12 ± 0.46
